PubChem BioAssay AID488969 (Vanderbilt High Throughput Screening Facility, 2010)
In all, about 110,000 compounds were measured (“z-score”: median about -0.1, highest 2% from about 2 on). The list shows a part of the results. The source made the active and inactive calls.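 How the source made its calls: active means z-score in the third read window above 3 or below -3; inactive means the rest.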

molecular target: Metabotropic glutamate receptor 8 (Rattus norvegicus) (UniProt P70579); test: mGluR8 Gi/Go-coupled signaling modulation – cell-based, rat, thallium flux, HTS, primary screen (AID 488969); details: HEK293 rat mGluR8, GIRK (G protein-gated inwardly rectifying potassium channel) thallium flux, FluoZin2; at 10 µM; stronger effect = higher value; submaximal glutamate (EC20) added with thallium
UniProt P70579, sequence (P70579 whole entry, looked up): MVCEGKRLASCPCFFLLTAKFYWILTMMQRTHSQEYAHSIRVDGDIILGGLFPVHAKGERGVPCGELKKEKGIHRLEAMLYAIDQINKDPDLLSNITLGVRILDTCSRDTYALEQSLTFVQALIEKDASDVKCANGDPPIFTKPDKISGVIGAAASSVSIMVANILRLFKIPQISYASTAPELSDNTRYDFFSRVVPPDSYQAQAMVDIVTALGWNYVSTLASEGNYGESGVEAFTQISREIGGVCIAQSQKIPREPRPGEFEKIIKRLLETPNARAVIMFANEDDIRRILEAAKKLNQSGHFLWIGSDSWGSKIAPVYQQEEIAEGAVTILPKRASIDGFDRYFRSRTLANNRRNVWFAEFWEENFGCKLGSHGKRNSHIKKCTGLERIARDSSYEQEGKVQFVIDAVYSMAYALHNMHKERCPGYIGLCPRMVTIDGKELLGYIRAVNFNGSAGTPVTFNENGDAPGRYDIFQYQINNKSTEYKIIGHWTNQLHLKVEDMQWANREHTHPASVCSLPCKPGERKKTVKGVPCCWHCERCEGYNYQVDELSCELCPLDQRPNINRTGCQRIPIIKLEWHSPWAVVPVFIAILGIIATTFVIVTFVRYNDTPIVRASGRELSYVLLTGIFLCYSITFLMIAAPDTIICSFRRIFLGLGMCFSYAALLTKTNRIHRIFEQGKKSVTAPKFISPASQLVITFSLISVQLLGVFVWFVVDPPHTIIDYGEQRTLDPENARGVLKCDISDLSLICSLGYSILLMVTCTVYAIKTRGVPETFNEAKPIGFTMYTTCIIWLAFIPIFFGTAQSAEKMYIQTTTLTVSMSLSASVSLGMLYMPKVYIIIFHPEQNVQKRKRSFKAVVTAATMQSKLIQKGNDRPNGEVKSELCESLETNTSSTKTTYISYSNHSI

Row | Compound | z-score
1 | O=C(O)C1CCCCC1C(=O)Nc1ccc(Cl)cc1 (configuration not stated) | -0.515
2 | CCOc1ccc(C(=O)Nc2cc(C)c3c(=O)oc4ccccc4c3n2)cc1 | -0.345
3 | O=C(COC(=O)C1COc2ccccc2O1)NC(=O)NC1CCCCC1 (configuration not stated) | -0.171
4 | Clc1ccc(N2CCCCCC2)nn1 | 0.0183
5 | COc1ccc(C(=O)OC2CCN(C)CC2)cc1 | 0.429
6 | Cn1c(=O)c(=O)n(C)c2cc(S(=O)(=O)N3CCOCC3)ccc21 | 0.162
7 | O=C(Nc1cccc(Cl)c1N1CCCC1)c1ccc(Br)o1 | 0.567
8 | Cc1ccc2nc(-c3ccncc3)cc(-c3ccccc3)c2c1 | -0.221
9 | CCc1ccc(C(=O)COC(=O)CNC(=O)c2ccc(N3C(=O)c4ccccc4C3=O)cc2)cc1 | -0.209
10 | Cc1coc2c1c(C)cc1oc(=O)c(Cc3ccccc3)c(C)c12 | -0.0677
11 | Cc1cc(Br)ccc1NC(=O)C(C)c1ccc([N+](=O)[O-])cc1 (configuration not stated) | -0.0761
12 | CCN(CC)CCCN1C(=O)C(=O)/C(=C(/O)c2ccc3c(c2)OCCO3)C1c1ccco1 (configuration not stated) | 0.529
13 | Cc1ccccc1Nc1n[nH]c(C)c1[N+](=O)[O-] | -0.305
14 | O=C(CN(c1ccc(F)cc1)S(=O)(=O)c1ccc2c(c1)OCCO2)NCc1cccnc1 | 0.0905
15 | COc1ccc(NS(=O)(=O)c2ccc(NC(=S)NC(=O)c3ccc(Br)cc3)cc2)nn1 | -0.0905
16 | COc1ccc(/C=N/NC(=O)OC(C)(C)C)cc1OC | -0.181
17 | N/C(=N\OC(=O)C1CCCCC1)c1ccccn1 | 0.187
18 | O=C(/C=C/c1ccc([N+](=O)[O-])cc1)NCc1ccco1 | -0.0236
19 | CC(O)CNc1nc2c(c(=O)n(C)c(=O)n2C)n1Cc1cccc(C(F)(F)F)c1 (configuration not stated) | 0.369
20 | CCC(C)C(=O)Nc1nc(C)c(-c2csc(Nc3ccc(Cl)cc3)n2)s1 (configuration not stated) | 0.225
21 | COc1ccc(-n2c(-c3ccccc3)nnc2-c2ccc(Cl)cc2)cc1 | 1.13
22 | CC(=O)c1cnn(-c2cc(Oc3ccccc3C)ncn2)c1C | 0.0466
23 | CNC(=S)Nc1cc(Cl)ccc1Oc1ccccc1 | 0.287

Row | Compound | z-score
24 | O=C(Nc1ccc(-c2nc3ccccc3o2)cc1)c1ccc(N2C(=O)C3C4C=CC(C4)C3C2=O)cc1 (configuration not stated) | -0.241
25 | COc1ccc([N+](=O)[O-])cc1NC(=O)CSc1ccc2ccccc2c1 | -0.127
26 | O=C(NNC(=S)Nc1ccccc1)c1cccc(Br)c1 | active: 3.98
27 | N#Cc1c(-c2ccncc2)c2c([nH]c1=S)CCCC2 | -0.164
28 | O=C(Nc1ccc(F)cc1)Nc1ccccc1NS(=O)(=O)c1cccs1 | 0.235
29 | CN1CCN(CCP(=O)(c2ccccc2)c2ccccc2)CC1 | 0.661
30 | c1ccc(-c2nc(NCc3ccco3)c3ccccc3n2)cc1 | -2.27
31 | Cc1cc(Cl)c(S(=O)(=O)NC2CCCC2)cc1OCC(=O)NC1CCCCC1 | -0.0633
32 | O=C(CCSCCC(=O)NCC1CCCO1)NCC1CCCO1 (configuration not stated) | 0.111
33 | COc1ccc(N(C)C2=NS(=O)(=O)c3ccccc32)cc1 | 0.577
34 | O=C(CN1CCC(c2nc3ccccc3[nH]2)CC1)NCc1ccc2c(c1)OCO2 | -0.271
35 | Cc1ccc2nc(SCC(=O)Nc3ccc4sc(C)nc4c3)c(C#N)cc2c1 | 0.184
36 | COc1nc2ccc(C)cc2cc1-c1noc(-c2ccccc2)n1 | -0.186
37 | CC(=O)/C(=N\Nc1cccc(Cl)c1)Sc1nnc(-c2ccccc2)n1-c1ccccc1 | -0.0247
38 | O=C(NCCN1CCOCC1)c1ccc2c(c1)N(Cc1ccccc1)C(=O)CS2 | -0.416
39 | CCOC(=O)c1c(C)[nH]c(C)c1C(=O)CSc1nc2ccccc2[nH]1 | -0.0721
40 | O=S(=O)(c1ccccc1)N1CCC(n2nnc3cc(F)ccc32)CC1 | -0.132
41 | CC1(C)Cc2c(sc3nnn(Cc4ccc(Cl)cc4)c(=O)c23)CO1 | 0.796
42 | CC1=C(C(=O)OCc2ccc3c(c2)OCO3)C(c2ccc(F)cc2)NC(=O)N1 (configuration not stated) | -0.646
43 | CCC(=O)c1ccc(OCC(O)CN2CCN(c3cccc(C(F)(F)F)c3)CC2)cc1 (configuration not stated) | 1.05
44 | O=C(Nc1cccn(Cc2ccccc2)c1=O)NC1CCCCC1 | -0.501
45 | O=C(Nc1ccc(F)cc1)C1CCC(N2C(=O)c3ccccc3C2=O)CC1 (configuration not stated) | -0.473
46 | CC(=O)Nc1ccc(NC(=S)NC(=O)c2cc3ccccc3o2)cc1 | 0.734

Row | Compound | z-score
47 | Cc1cc2cc(CNC(=O)c3cccs3)ccc2[nH]1 | -0.241
48 | CCNc1nc(OC)nc(N2CCC(Cc3ccccc3)CC2)n1 | -0.256
49 | Cc1nc(-c2ccc(NC(=O)c3cccs3)cc2)cs1 | -0.0433
50 | COc1ccc(C2CC(c3ccc(Cl)cc3)Nc3nc(NC(=O)c4ccco4)nn32)cc1 (configuration not stated) | -0.169
51 | Cc1c(CC(C)C)nc(N)c(C#N)c1-c1ccccc1 | -0.104
52 | COCCCNC(=O)C1CCN(S(=O)(=O)c2c(C)noc2/C=C\c2ccc(OC)cc2)CC1 | -0.801
53 | O=C(COc1ncnc2ccccc12)NC1CCS(=O)(=O)C1 (configuration not stated) | 0.546
54 | COc1cc(C(=O)Nc2ccc3c(c2)C(=O)N(CCC(=O)O)C3=O)cc(OC)c1OC | 0.118
55 | Cc1cccc(NC(=O)C2(c3cccs3)CCOCC2)c1 | -0.122
56 | COc1ccc(-c2nnc(SCC(=O)c3cc(C)n(Cc4cccs4)c3C)o2)cc1 | -0.177
57 | Cc1ccc2c(CC(=O)NNC(=O)c3ccccc3)coc2c1 | -0.29
58 | Cc1ccc(OCc2ccc(C(=O)Nc3c(C)nn(Cc4c(F)c(F)c(F)c(F)c4F)c3C)o2)c([N+](=O)[O-])c1 | -0.664
59 | CC1CCN(c2nc(NCc3ccco3)nc(N)c2[N+](=O)[O-])CC1 | -0.336
60 | CC(C)=CC(=O)Nc1nnc(-c2ccc(F)cc2)s1 | -0.0616
61 | COc1cc(NC(=O)c2cccs2)c(C(=O)OCC(=O)NC(C)c2ccccc2)cc1OC (configuration not stated) | -0.919
62 | COc1cc(NC(=O)NS(=O)(=O)c2ccc(C)cc2)cc(OC)c1 | -0.0788
63 | O=C(Cc1ncc(C(F)(F)F)cc1Cl)Nc1ccc(F)cc1 | -0.0056
64 | Cc1cccc(N(CC(=O)NC2CCCCC2)C(=O)c2c(C)noc2C)c1 | -0.593
65 | Cc1ccccc1Nc1nnc(C)c(=O)n1N | 0.0745
66 | CCCc1c(O)nc(SCC(=O)NCCc2ccc(OC)c(OC)c2)[nH]c1=O | -0.0747
67 | O=C(c1ccccc1)[C@H]1CC=CC[C@H]1C(=O)O | -0.127
68 | Brc1ccc(-c2noc(COc3ccc4ccccc4c3)n2)o1 | -0.126
69 | Cc1cc(NCCO)c2cc(O)ccc2n1 | 0.231

Row | Compound | z-score
70 | CCOC(=O)[C@@H]1CCNC[C@@H]1c1ccccc1 | 0.253
71 | Cn1c(-c2ccccc2Br)n[nH]c1=S | -0.0173
72 | COc1cc(CC(=O)OCC(=O)Nc2cccc([N+](=O)[O-])c2)cc(OC)c1OC | -0.514
73 | C/C(=N\NC(=O)C1CC1)c1ccc(Cl)cc1 | -0.265
74 | N#C/C(=C\N1CCOCC1)c1ccccc1 | -0.213
75 | CC(NC(=O)COC(=O)Cc1ccsc1)C1CC2CCC1C2 (configuration not stated) | -0.168
76 | CCOc1ccc(OCCCC(=O)NC2=NCCS2)cc1 | 0.00357
77 | O=C(CC(c1ccccc1)c1cc(Br)ccc1O)NCc1ccco1 (configuration not stated) | -1.44
78 | CCOC(=O)c1cc(C(=O)Nc2ccccc2F)nn1C | -0.326
79 | CSC1=NCCN1C(=O)Cc1cccs1 | 0.0271
80 | COc1ccc(NC(=O)c2cccs2)cc1NC(=O)c1ccco1 | -0.191
81 | Cc1cccc(C)c1C(OCCN(C)C)C1CCCCC1 (configuration not stated) | 1.12
82 | Cc1cccc(C)c1NC(=O)c1c(-c2ccccc2)noc1C | -0.0725
83 | C/C(=C\C(=O)c1ccc(Cl)cc1)Nc1ccc(N2CCOCC2)cc1 | -0.751
84 | CCc1ccc(/C=N/NC(=O)c2cc(-c3ccccc3OC)nc3ccccc23)s1 | 0.385
85 | Cc1ccc(CN2CCc3c(OCc4ccc(F)cc4)cccc3C2=O)cc1 | 0.0736
86 | C(#CCN1CCC(Cc2ccccc2)CC1)COCCOCc1ccccc1 | -0.206
87 | Cn1ncc2c(N3CCN(c4ccccc4F)CC3)ncnc21 | -0.248
88 | COc1ccc(-c2nc3c(c4nnc(SC(C)C(=O)Nc5ccc(C)cc5)n24)COC(C)(C)C3)cc1 (configuration not stated) | -0.373
89 | COc1ccc(OCc2nnc(SCC(=O)NNC(=O)c3ccc(C)cc3)n2C)cc1 | -0.0492
90 | Cc1ccc2ncc(NC(=O)c3ccc(F)cc3)c(=O)n2c1 | -0.426
91 | O=S(=O)(NCc1cccnc1)c1ccc(Cl)c(Cl)c1 | 0.0681
92 | CCN=C1S/C(=C\c2cc(Br)ccc2OCC(=O)OCC)C(=O)N1CC | -0.0384

Row | Compound | z-score
93 | O=C(Nc1c(Cl)cc(Cl)cc1-c1nc2ccccc2s1)c1ccc(Br)o1 | -0.0849
94 | CCCCOC(=O)Cn1c2ccc(OC)cc2c2nc3ccccc3nc21 | -0.283
95 | Cc1cc(C)nc(N2CCCC(C(=O)NCCC3=CCCCC3)C2)n1 (configuration not stated) | 0.000737
96 | CCCc1ccc(OCc2ccc(C(=O)O)o2)c(OC)c1 | -1.28
97 | COc1ccc(S(=O)(=O)NNC(=O)c2csc(-n3nc(C)cc3C(F)(F)F)n2)cc1 | 0.265
98 | CCn1c(Cc2ccccc2)nnc1SCC(=O)Nc1ccc(S(N)(=O)=O)cc1 | -0.143
99 | CC1CCCCC1NC(=O)COC(=O)c1ccccc1NC(=O)c1ccco1 (configuration not stated) | 0.824
100 | CCOC(=O)N1CCN(C(=O)CCC(=O)N2CCOc3ccc(C)cc32)CC1 | 1.07
101 | CCn1c(SCC(=O)N2CCOCC2)nnc1-c1cccs1 | 0.783
102 | O=C(NC1CCCCC1)C(c1ccccc1)N(Cc1ccco1)C(=O)Cn1cnc2ccccc21 (configuration not stated) | -1.29
103 | CC(=O)Nc1sc2c(c1CN1CCN(c3ccc(F)cc3)CC1)CCCC2 | -0.0547
104 | Cc1ccc2c(c1)[nH]c1c(=O)n(CCN3CCCCC3)cnc12 | 0.776
105 | O=C(CSc1ccc2nnc(-c3ccc(F)cc3)n2n1)NCc1ccco1 | -0.204
106 | CC(C)NC(=S)NCc1cccnc1 | -0.16
107 | O=C1C=CC(=O)N1Nc1ccc(Br)cc1 | -0.363
108 | CCN(CC)C(=O)CN(c1cc2c(cc1OC)oc1ccccc12)S(=O)(=O)c1ccc(C)cc1 | -0.512
109 | C(=N\Nc1nc2ccccc2s1)/c1ccc2c(c1)OCO2 | -0.0472
110 | CC(=Nc1ccc(C)c(C)c1)C1=C(O)CCC1=O | -0.6
111 | CCOc1cccc(C(=O)Nc2cccnc2)c1 | -0.219
112 | CCCn1c(SCC(=O)Nc2cc(Cl)ccc2OC)n[nH]c1=O | -2.02
